Data on 49 compounds can be found in article PMC12040169 (PLOS Biology, 2025).

Some of the results follow.

The subject of this test is T1, C. trachomatis L2/434/Bu expressing GFP (CTL2-GFP).
T1 construct: L2/434/Bu GFP intracellular growth in HeLa cells
Set-up: species or system HeLa; C. trachomatis total inclusion area by high-content imaging, normalised to DMSO. The following applies: total inclusion area; 28.5 h, 10 µM; inhibitor. Put shortly: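 Host cell viability was gauged from Hoechst-stained nuclei counts, while chlamydial growth was taken from total inclusion area and inclusion number per well. Cells were fixed and imaged by high-content microscopy once bulk GFP and resorufin fluorescence had been measured.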
On to `CC1=C[C@@H](CO)[C@H](C(C)C)C[C@H]1Cc1nnc(-c2ccncc2)o1` [CBK289222], for which the “% of control remaining” value came to 97.4394.
Next, `COC(=O)c1cc(S(=O)(=O)N2c3ccccc3CC2C)cn1C` (stereo not shown) [CBK304384]: 47.042; `CC(C)C[C@H](NC(=O)COc1ccc2nc3n(c(=O)c2c1)CCCCC3)C(=O)O` [CBK286656]: 49.0208.
On to `Nc1nc(CSc2nnc(Cc3ccc([N+](=O)[O-])cc3)n2-c2ccccc2)cs1` [CBK267408], for which the “% of control remaining” value is on record as 114.177.
Take `Cc1cc2oc(C(=O)Nc3sc4c(c3C(=O)NC3CCS(=O)(=O)C3)CCC(C)C4)c(C)c2cc1C` (stereo not shown) [CBK266351]: the “% of control remaining” value worked out at 120.511.
The result for `COc1ccc(-c2cc(C(=O)Nc3ccc(OC(F)(F)F)cc3)cnc2-c2ccccc2)cn1` [CBK036621] reads 57.365.
Next, `Cc1nn2c(C)c(C(=O)Nc3ccccc3)nnc2c1-c1ccccc1` [CBK270198]: 100.101; `Cc1cc2c(s1)c1cnn(Cc3ccccn3)c(=O)c1n2C` [CBK284227]: 109.167; `Cc1nn(C)cc1C(=O)N1CCCC1c1nc2ccccc2[nH]1` (stereo not shown) [CBK282371]: 101.47.
The result for `O=C(Nc1nc2ccccc2[nH]1)c1cccc(N2CCCS2(=O)=O)c1` [CBK304584] reads 28.7374; that for `O=c1[nH]c2ncc(-c3ccsc3)nc2n1CCCO` [CBK065044], 72.9749; that for `Cc1cc(C(=O)N2CCC(C(=O)NC(c3ccccc3)c3ccc4ccccc4n3)CC2)no1` (stereo not shown) [CBK059641], 95.9721.
`COc1ccc(S(=O)(=O)N2Cc3ccccc3CC2C(=O)Nc2ccc(O)cc2)cc1OC` (stereo not shown) [CBK293967]: the “% of control remaining” value is recorded as 99.0415.
The result for `Cc1ccc(S(=O)(=O)NCC(=O)Nc2ccc(Cl)cn2)cc1` [CBK091357] reads 74.2948; that for `NNC(=O)CN(CCc1ccccc1)S(=O)(=O)c1ccc(Cl)cc1` [CBK263754], 104.507; that for `COc1cccc(CN2C(=O)CC3(C2=O)C(=O)N(Cc2ccc4ccccc4n2)c2ccccc23)c1` (stereo not shown) [CBK076016], 89.9685.
Take `O=C(O)c1nccnc1C(=O)N1CCN(c2ccc(Cl)cc2)CC1` [CBK286826]: the “% of control remaining” value was determined as 82.229.
Take `Cc1noc(-c2ccccc2)c1CN1CCCN(S(=O)(=O)c2ccc(C(F)(F)F)cc2Cl)CC1` [CBK063104]: the “% of control remaining” value is 77.2233.
For the compound `COc1cc(-c2cnc(N)c(N3CCN(CCN(C)C)CC3)n2)cc(OC)c1OC` [CBK063488], the “% of control remaining” value came to 130.376.
Regarding `O=C(CC1NC(=O)NC1=O)Nc1cccc2ccccc12` (stereo not shown) [CBK267164], the “% of control remaining” value is 91.7697.
Consider `COC(=O)c1c(NC(=O)CSc2nnc3ccccn23)sc(C)c1C` [CBK265943], for which the “% of control remaining” value was 100.809.
As to `NC(=O)c1ccc(-c2cnc3[nH]c(=O)n(CCCN4CCOCC4)c3n2)cc1` [CBK065092], the “% of control remaining” value stood at 152.317.
The result for `c1cnn(CC2CCCN2c2ncnc3sc4c(c23)CCNC4)c1` (stereo not shown) [CBK307490] reads 89.6126.
The result for `CCCCC1C(=O)N(C)CCN1C(=O)c1cc(C)c(CC)n(C)c1=O` (stereo not shown) [CBK306527] reads 77.8368.
The result for `Cc1ccc([N+](=O)[O-])cc1S(=O)(=O)n1ccc2c(N3CCNCC3)nccc21` [CBK059068C] reads 87.9597.
As to `Cc1cc(NCc2ccccc2)nc2[nH]nc(N)c12` [CBK287931], the “% of control remaining” value is listed as 75.0837.
The result for `Cc1nc(-c2ccccc2)sc1CNC(=O)CCC(F)(F)F` [CBK092365] reads 100.698; that for `CCC1CCCCN1C(=O)Cc1c(C)nc(-c2cccnc2)[nH]c1=O` (stereo not shown) [CBK306240], 36.3485; that for `Cc1cc(NC(=O)C2CCCC2)nc2c1c(=O)oc1ccccc12` [CBK287438], 94.1863.
Next, `Nc1ncc(-c2cccc(-c3ccccc3)c2)nc1N1CCN(CCO)CC1` [CBK063410]: 92.9497; `CC(C)NC(=O)c1ccc(-n2cccn2)c(C#Cc2cccnc2)c1` [CBK284523]: 118.368.
The result for `Cc1ccc(-c2noc(CN3CCN(C(c4ccccc4)c4ccccc4)CC3)n2)cc1` [CBK266425] reads 116.233; that for `Cc1cc(C)n(C(C)C(=O)N2CCC(Nc3cccnc3)CC2)n1` (stereo not shown) [CBK305917], 50.0598.
In the case of `O=C(Cn1cccn1)NCC(c1ccccc1Cl)N1CCOCC1` (stereo not shown) [CBK305593], the “% of control remaining” value is 44.6554.
Next, `CS(=O)(=O)Nc1ccc(N2CCNCC2)c2ccccc12` [CBK059355C]: 28.7383; `Nc1ncc(-c2cccc3cccnc23)nc1N1CCC[C@@H]1CO` [CBK063470]: 86.9869.
As for `Cc1ccc(C(=O)CSc2nc(O)c3nc[nH]c3n2)cc1` [CBK300520], the “% of control remaining” value was found to be 120.787.
The result for `O=C(O)CCn1c2ccccc2c2cc(I)ccc21` [CBK262578] reads 107.939; that for `Cc1cccn2c(=O)c(/C=C3\SC(=S)N(CC4CCCO4)C3=O)c(NCCCn3ccnc3)nc12` (stereo not shown) [CBK263825], 52.4901; that for `Cc1cccc(-c2ccc(CC3(C(=O)NC(C)C)CCN(C(=O)C(C)C)CC3)cc2)c1` [CBK285756], 89.8409.
Take `O=C(O)c1ccc(NC(=O)c2cnccn2)cc1` [CBK268110]: the “% of control remaining” value worked out at 107.295.
The result for `CC(=O)N1CCC2(CCCC[C@H]3CNCC[C@@H]3NC(=O)CNC2=O)CC1` [CBK292167] reads 122.119; that for `Cc1ccc(S(=O)(=O)NC(C)(C)C)cc1C(=O)N(C)Cc1cnn(C)c1` [CBK305433], 48.1638; that for `COc1ccc(C2CC(c3ccc4ccccc4c3)=NN2C(=O)COc2ccccc2C(=O)O)cc1` (stereo not shown) [CBK297503], 102.551.
Next, `O=[N+]([O-])c1ccc(NC(=S)NCCCn2ccnc2)cc1` [CBK264915]: 112.806; `O=C(CCc1ccc(-c2ccc(F)cc2)o1)Nc1ccc(C(=O)O)cc1` [CBK300502]: 79.2558.
`Cc1ccc(-c2nn(CCC#N)cc2C(=O)N2CCOCC2)cc1C` [CBK305940]: the “% of control remaining” value stood at 42.0118.
The result for `O=C(Cc1ccc2c(c1)CCC2)N1CCCCC1CN1CCOCC1` (stereo not shown) [CBK282704] reads 106.946; that for `CC(=O)Nc1ccc(S(=O)(=O)N2CCN(S(=O)(=O)c3ccccc3)CC2)cc1` [CBK264163], 122.088.
